Assay [1] has as its target T1, Flag-tagged WT-OGT (human O-GlcNAc transferase) (human) (UniProt O15294).
T1 sequence: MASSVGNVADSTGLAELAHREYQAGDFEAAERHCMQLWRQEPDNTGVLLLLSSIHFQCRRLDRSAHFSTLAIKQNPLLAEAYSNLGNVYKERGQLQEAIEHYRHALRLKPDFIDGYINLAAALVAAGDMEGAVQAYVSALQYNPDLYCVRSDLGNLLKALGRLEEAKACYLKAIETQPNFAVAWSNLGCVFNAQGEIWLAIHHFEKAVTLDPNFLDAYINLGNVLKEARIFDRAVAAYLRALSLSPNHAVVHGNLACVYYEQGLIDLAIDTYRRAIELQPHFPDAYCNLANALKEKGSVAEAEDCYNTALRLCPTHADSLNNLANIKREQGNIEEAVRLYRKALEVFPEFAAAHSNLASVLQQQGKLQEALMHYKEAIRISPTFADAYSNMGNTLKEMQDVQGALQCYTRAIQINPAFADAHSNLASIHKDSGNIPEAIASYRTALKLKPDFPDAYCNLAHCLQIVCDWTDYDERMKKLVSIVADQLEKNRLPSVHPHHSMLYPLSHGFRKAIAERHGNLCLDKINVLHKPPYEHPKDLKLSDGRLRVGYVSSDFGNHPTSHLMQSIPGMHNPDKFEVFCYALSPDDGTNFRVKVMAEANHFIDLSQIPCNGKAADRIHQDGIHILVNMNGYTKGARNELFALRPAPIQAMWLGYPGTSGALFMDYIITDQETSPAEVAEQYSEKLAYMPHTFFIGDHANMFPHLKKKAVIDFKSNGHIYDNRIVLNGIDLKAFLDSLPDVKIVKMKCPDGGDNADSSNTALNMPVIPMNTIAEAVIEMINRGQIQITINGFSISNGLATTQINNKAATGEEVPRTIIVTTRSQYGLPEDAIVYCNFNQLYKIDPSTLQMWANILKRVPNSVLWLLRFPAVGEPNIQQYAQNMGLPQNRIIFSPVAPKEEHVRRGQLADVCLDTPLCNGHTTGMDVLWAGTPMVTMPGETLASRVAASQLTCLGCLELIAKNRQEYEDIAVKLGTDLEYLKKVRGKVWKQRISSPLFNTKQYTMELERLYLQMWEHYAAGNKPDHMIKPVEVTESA
Kind of assay: co-IP; HeLa cells transfected with Flag-tagged OGT; immunoprecipitated with anti-Flag antibody; bound endogenous importin α5 detected with an anti-importin α5 antibody.

Amino acid sequences for entries named in this document (tags omitted).
UniProt P52294: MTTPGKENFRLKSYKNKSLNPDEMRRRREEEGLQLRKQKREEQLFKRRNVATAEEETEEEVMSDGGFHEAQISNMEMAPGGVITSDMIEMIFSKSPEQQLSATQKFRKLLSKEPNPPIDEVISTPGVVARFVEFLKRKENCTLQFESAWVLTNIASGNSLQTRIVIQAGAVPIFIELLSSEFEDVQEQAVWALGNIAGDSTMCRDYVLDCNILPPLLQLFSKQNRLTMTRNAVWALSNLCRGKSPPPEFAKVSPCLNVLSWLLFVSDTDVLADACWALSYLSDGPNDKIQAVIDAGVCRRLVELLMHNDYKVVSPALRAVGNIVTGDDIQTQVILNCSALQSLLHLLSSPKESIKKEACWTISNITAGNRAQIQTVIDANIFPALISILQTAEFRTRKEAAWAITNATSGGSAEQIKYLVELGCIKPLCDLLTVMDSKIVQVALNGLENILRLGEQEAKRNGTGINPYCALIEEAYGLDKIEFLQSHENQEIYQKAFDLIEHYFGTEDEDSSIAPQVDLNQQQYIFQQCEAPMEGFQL

The target in assay [2] is GST-importin α5 fusion protein (human) (UniProt P52294). Kind of assay: pull-down; recombinant GST-importin α5 immobilised on Glutathione-Sepharose 4B (5 μg of beads) incubated with pre-cleared lysates of HeLa cells overexpressing Flag-tagged OGT constructs, 2 h at 4 °C; bound OGT detected with anti-Flag antibody; only the target purified.
The target in assay [3] is Myc-tagged importin α5 (human) (UniProt P52294). Nature of the assay: co-IP; HeLa cells co-transfected with Flag-tagged OGT constructs and Myc-tagged importin α or β; lysates immunoprecipitated with anti-Flag or with anti-Myc antibody, the partner detected by western blot; co-IP buffer 50 mM Tris-HCl pH 7.4, 150 mM NaCl, 0.5% NP-40, 4 °C; beads washed three times (stringently in Fig. 4a,b). In general terms: A western blot detects proteins with antibodies after separation by electrophoresis.

These are yes or no findings as the source states them, for the method shown. Binding seen in cells or lysates may run through a third protein. Some entries that bind do so weakly or less than the wild type. Sequences can lack the tags named with a protein.

Turning to “endogenous importin α5 (from UniProt P52294 1-538)”, the binding entry in assay [1] is reported as “binds”.

B1: Flag-tagged Mono-OGT (OGT-W198E, I201D) (enzyme, UniProt O15294-3 1-1036)
chain: MASSVGNVADSTGLAELAHREYQAGDFEAAERHCMQLWRQEPDNTGVLLLLSSIHFQCRRLDRSAHFSTLAIKQNPLLAEAYSNLGNVYKERGQLQEAIEHYRHALRLKPDFIDGYINLAAALVAAGDMEGAVQAYVSALQYNPDLYCVRSDLGNLLKALGRLEEAKACYLKAIETQPNFAVAWSNLGCVFNAQGEIELADHHFEKAVTLDPNFLDAYINLGNVLKEARIFDRAVAAYLRALSLSPNHAVVHGNLACVYYEQGLIDLAIDTYRRAIELQPHFPDAYCNLANALKEKGSVAEAEDCYNTALRLCPTHADSLNNLANIKREQGNIEEAVRLYRKALEVFPEFAAAHSNLASVLQQQGKLQEALMHYKEAIRISPTFADAYSNMGNTLKEMQDVQGALQCYTRAIQINPAFADAHSNLASIHKDSGNIPEAIASYRTALKLKPDFPDAYCNLAHCLQIVCDWTDYDERMKKLVSIVADQLEKNRLPSVHPHHSMLYPLSHGFRKAIAERHGNLCLDKINVLHKPPYEHPKDLKLSDGRLRVGYVSSDFGNHPTSHLMQSIPGMHNPDKFEVFCYALSPDDGTNFRVKVMAEANHFIDLSQIPCNGKAADRIHQDGIHILVNMNGYTKGARNELFALRPAPIQAMWLGYPGTSGALFMDYIITDQETSPAEVAEQYSEKLAYMPHTFFIGDHANMFPHLKKKAVIDFKSNGHIYDNRIVLNGIDLKAFLDSLPDVKIVKMKCPDGGDNADSSNTALNMPVIPMNTIAEAVIEMINRGQIQITINGFSISNGLATTQINNKAATGEEVPRTIIVTTRSQYGLPEDAIVYCNFNQLYKIDPSTLQMWANILKRVPNSVLWLLRFPAVGEPNIQQYAQNMGLPQNRIIFSPVAPKEEHVRRGQLADVCLDTPLCNGHTTGMDVLWAGTPMVTMPGETLASRVAASQLTCLGCLELIAKNRQEYEDIAVKLGTDLEYLKKVRGKVWKQRISSPLFNTKQYTMELERLYLQMWEHYAAGNKPDHMIKPVEVTESA
Take B1: the binding entry in assay [2] and in assay [3] was “binds” in each case.

B2: Flag-tagged Mono-OGT 451–453 AAA (enzyme, UniProt O15294-3 1-1036)
chain: MASSVGNVADSTGLAELAHREYQAGDFEAAERHCMQLWRQEPDNTGVLLLLSSIHFQCRRLDRSAHFSTLAIKQNPLLAEAYSNLGNVYKERGQLQEAIEHYRHALRLKPDFIDGYINLAAALVAAGDMEGAVQAYVSALQYNPDLYCVRSDLGNLLKALGRLEEAKACYLKAIETQPNFAVAWSNLGCVFNAQGEIELADHHFEKAVTLDPNFLDAYINLGNVLKEARIFDRAVAAYLRALSLSPNHAVVHGNLACVYYEQGLIDLAIDTYRRAIELQPHFPDAYCNLANALKEKGSVAEAEDCYNTALRLCPTHADSLNNLANIKREQGNIEEAVRLYRKALEVFPEFAAAHSNLASVLQQQGKLQEALMHYKEAIRISPTFADAYSNMGNTLKEMQDVQGALQCYTRAIQINPAFADAHSNLASIHKDSGNIPEAIASYRTALKLKPAAADAYCNLAHCLQIVCDWTDYDERMKKLVSIVADQLEKNRLPSVHPHHSMLYPLSHGFRKAIAERHGNLCLDKINVLHKPPYEHPKDLKLSDGRLRVGYVSSDFGNHPTSHLMQSIPGMHNPDKFEVFCYALSPDDGTNFRVKVMAEANHFIDLSQIPCNGKAADRIHQDGIHILVNMNGYTKGARNELFALRPAPIQAMWLGYPGTSGALFMDYIITDQETSPAEVAEQYSEKLAYMPHTFFIGDHANMFPHLKKKAVIDFKSNGHIYDNRIVLNGIDLKAFLDSLPDVKIVKMKCPDGGDNADSSNTALNMPVIPMNTIAEAVIEMINRGQIQITINGFSISNGLATTQINNKAATGEEVPRTIIVTTRSQYGLPEDAIVYCNFNQLYKIDPSTLQMWANILKRVPNSVLWLLRFPAVGEPNIQQYAQNMGLPQNRIIFSPVAPKEEHVRRGQLADVCLDTPLCNGHTTGMDVLWAGTPMVTMPGETLASRVAASQLTCLGCLELIAKNRQEYEDIAVKLGTDLEYLKKVRGKVWKQRISSPLFNTKQYTMELERLYLQMWEHYAAGNKPDHMIKPVEVTESA
B2: the binding result in assay [2] is on record as “no binding”.

B3: Flag-tagged Mono-OGT Δ451–453 (enzyme, UniProt O15294-3 1-1036)
chain: MASSVGNVADSTGLAELAHREYQAGDFEAAERHCMQLWRQEPDNTGVLLLLSSIHFQCRRLDRSAHFSTLAIKQNPLLAEAYSNLGNVYKERGQLQEAIEHYRHALRLKPDFIDGYINLAAALVAAGDMEGAVQAYVSALQYNPDLYCVRSDLGNLLKALGRLEEAKACYLKAIETQPNFAVAWSNLGCVFNAQGEIELADHHFEKAVTLDPNFLDAYINLGNVLKEARIFDRAVAAYLRALSLSPNHAVVHGNLACVYYEQGLIDLAIDTYRRAIELQPHFPDAYCNLANALKEKGSVAEAEDCYNTALRLCPTHADSLNNLANIKREQGNIEEAVRLYRKALEVFPEFAAAHSNLASVLQQQGKLQEALMHYKEAIRISPTFADAYSNMGNTLKEMQDVQGALQCYTRAIQINPAFADAHSNLASIHKDSGNIPEAIASYRTALKLKPDAYCNLAHCLQIVCDWTDYDERMKKLVSIVADQLEKNRLPSVHPHHSMLYPLSHGFRKAIAERHGNLCLDKINVLHKPPYEHPKDLKLSDGRLRVGYVSSDFGNHPTSHLMQSIPGMHNPDKFEVFCYALSPDDGTNFRVKVMAEANHFIDLSQIPCNGKAADRIHQDGIHILVNMNGYTKGARNELFALRPAPIQAMWLGYPGTSGALFMDYIITDQETSPAEVAEQYSEKLAYMPHTFFIGDHANMFPHLKKKAVIDFKSNGHIYDNRIVLNGIDLKAFLDSLPDVKIVKMKCPDGGDNADSSNTALNMPVIPMNTIAEAVIEMINRGQIQITINGFSISNGLATTQINNKAATGEEVPRTIIVTTRSQYGLPEDAIVYCNFNQLYKIDPSTLQMWANILKRVPNSVLWLLRFPAVGEPNIQQYAQNMGLPQNRIIFSPVAPKEEHVRRGQLADVCLDTPLCNGHTTGMDVLWAGTPMVTMPGETLASRVAASQLTCLGCLELIAKNRQEYEDIAVKLGTDLEYLKKVRGKVWKQRISSPLFNTKQYTMELERLYLQMWEHYAAGNKPDHMIKPVEVTESA
Turning to B3, the binding entry in assay [2] was “no binding”.

For the origin of these results see publication PMC5054401.
